Measurements as given in PubChem BioAssay AID488969 (Vanderbilt High Throughput Screening Facility, 2010).
Whole data set: some 110,000 compounds, median “z-score” near -0.1, cut for the highest 2% near 2. This is one part of the list. Active and inactive are the calls of the source.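 The calls were made as follows: active = z-score in the third read window above 3 or below -3; inactive = the rest.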

target: Metabotropic glutamate receptor 8 (Rattus norvegicus) (UniProt P70579); assay: mGluR8 Gi/Go-coupled signaling modulation – cell-based, rat, thallium flux, HTS, primary screen (AID 488969); conditions: HEK293 rat mGluR8, GIRK (G protein-gated inwardly rectifying potassium channel) thallium flux, FluoZin2; at 10 µM; stronger effect = higher value; submaximal glutamate (EC20) added with thallium
UniProt P70579, sequence (P70579 whole entry, looked up): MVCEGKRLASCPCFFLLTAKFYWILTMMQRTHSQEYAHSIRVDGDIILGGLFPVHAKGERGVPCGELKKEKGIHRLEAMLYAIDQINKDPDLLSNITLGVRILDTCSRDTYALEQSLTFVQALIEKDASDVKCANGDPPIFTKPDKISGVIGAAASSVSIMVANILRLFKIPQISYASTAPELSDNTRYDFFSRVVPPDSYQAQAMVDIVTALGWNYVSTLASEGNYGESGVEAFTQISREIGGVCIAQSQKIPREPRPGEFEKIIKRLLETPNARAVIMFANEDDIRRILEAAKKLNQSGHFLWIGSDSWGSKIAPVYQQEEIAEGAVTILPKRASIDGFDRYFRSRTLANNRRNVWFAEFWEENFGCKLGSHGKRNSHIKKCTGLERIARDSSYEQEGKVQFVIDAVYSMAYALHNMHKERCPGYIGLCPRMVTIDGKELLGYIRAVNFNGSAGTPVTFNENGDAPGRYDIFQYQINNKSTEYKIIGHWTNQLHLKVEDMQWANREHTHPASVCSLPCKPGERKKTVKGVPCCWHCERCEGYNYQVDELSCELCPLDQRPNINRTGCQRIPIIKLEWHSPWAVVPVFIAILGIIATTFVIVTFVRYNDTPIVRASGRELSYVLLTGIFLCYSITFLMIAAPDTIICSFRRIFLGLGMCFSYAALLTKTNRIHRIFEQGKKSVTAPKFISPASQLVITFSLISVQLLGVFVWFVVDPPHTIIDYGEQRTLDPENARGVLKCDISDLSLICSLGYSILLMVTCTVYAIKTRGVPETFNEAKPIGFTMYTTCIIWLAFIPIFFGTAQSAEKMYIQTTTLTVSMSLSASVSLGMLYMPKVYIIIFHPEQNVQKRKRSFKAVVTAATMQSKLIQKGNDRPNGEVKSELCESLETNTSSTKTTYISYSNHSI

In order of falling z-score:
1. CCCCCn1c(C(C)NC(=O)CCC)nc2ccccc21 (stereo not drawn)  1.76
2. CC1(C)CC(C)(c2ccc(O)cc2O)N(c2cccc(Cl)c2)C(=S)N1 (stereo not drawn)  1.48
3. COc1ccc(CC(NC(C)=O)C(=O)NC2CCN(C(=O)Nc3ccc(Cl)cc3)CC2)cc1OC (stereo not drawn)  1.04
4. COc1ccc(NC(=O)c2ncn[nH]2)cc1  0.997
5. C/C(=N\NC(=O)c1ccccc1)c1ccc(N2CCOCC2)cc1  0.862
6. COc1cc(C(=O)CSc2nnc(-c3ccc(O)cc3)n2CC2CCCO2)ccc1NC(C)=O (stereo not drawn)  0.663
7. CN(Cc1ccccc1)C(=O)c1cc(-c2ccc(Br)cc2)on1  0.618
8. CC(=O)c1c(C)nc2cc(Cl)ccc2c1N  0.581
9. Cc1cccc(NC(=S)NCc2cccn2C)c1  0.577
10. COc1cccc(C(=O)Nc2ccc3c(c2)C(=O)c2ccccc2C3=O)c1  0.437
11. CCOc1ccc(S(=O)(=O)Nc2ccc(O)c(Sc3ncn[nH]3)c2)cc1  0.432
12. Cc1cccc(Nc2nc3c(c(=O)n(C)c(=O)n3C)n2Cc2ccccc2)c1  0.413
13. COc1cc(C(=O)Nc2cc(-c3nc4cc(C)ccc4o3)ccc2C)cc(OC)c1OC  0.403
14. Cc1snc(S(=O)(=O)/C(C#N)=N\Nc2ccccc2)c1C#N  0.366
15. CCOC(=O)c1ccc(NC(=O)c2ccc(CO)c(C(=O)NC3CCN(C(=O)OCC)CC3)c2)cc1  0.337
16. CN(C)[C@@H]1CCC[C@@H]1OC(=O)C(c1ccccc1)c1ccccc1  0.33
17. Cc1ccc(NC(=O)C(C)N2C(=O)C3C4CC(C(Br)C4Br)C3C2=O)cc1 (stereo not drawn)  0.288
18. CC1CCN(S(=O)(=O)c2cc(Cl)ccc2Br)CC1  0.238
19. CC(C)c1ccc(CNc2ccc(N3CCOCC3)cc2)cc1  0.222
20. Nc1nc(CN2CCN(c3ccccc3)CC2)nc(N2CCCc3ccccc32)n1  0.216
21. CCC(=O)Nc1ccc(NC(=O)c2cccc(OC)c2)nc1  0.209
22. Clc1ccc2c(Cl)c(-c3nnc(-c4ccccc4)o3)sc2c1  0.204
23. Cc1ccc(-n2c(C)cc(/C=N/NC(=O)c3ccc(CN4CCOCC4)cc3)c2C)cc1  0.195
24. CCOC(=O)CSc1nnc(CNC(=O)c2cccs2)n1-c1cccc(C)c1  0.166
25. CCOc1ccccc1N1CCN(Cc2ccc(OC)c(OC)c2OC)CC1  0.162
26. COc1cc(SC)ccc1C(=O)NCCCOC(C)C  0.144
27. CCN(c1ccccc1)S(=O)(=O)c1ccc(C(=O)Nc2nnc(COC)o2)cc1  0.137
28. O=C(CCN1C(=O)c2ccccc2C1=O)NNC(=O)c1ccc(Cl)cc1Cl  0.126
29. O=C(Nc1ccc(C(=O)O)cc1)Nc1cccc([N+](=O)[O-])c1  0.124
30. CCOc1ccc(OCCSc2nnnn2-c2ccccc2)cc1  0.118
31. COC(=O)/C(=N\Nc1ccc(Cl)cc1)Sc1nnc(-c2ccc(OC)cc2)n1C  0.115
32. CC(C)(C)c1nc[nH]c(=O)c1Br  0.11
33. CCOc1ccc(C(=S)N2CCOCC2)cc1OC  0.11
34. CC1CN(C(=O)CN2C(=O)NC3(CCCCCC3)C2=O)CC(C)O1 (stereo not drawn)  0.0576
35. CCOC(=O)/C=c1\s/c(=C\c2c(OC)ccc3ccccc23)c(=O)n1CC(=O)NCC1CCCO1 (stereo not drawn)  0.0525
36. Cn1c(-c2ccc(F)cc2)cnc1NCc1ccccc1  0.0337
37. O=C(CCc1nc2ccccc2c(=O)[nH]1)OCc1nnc(-c2ccccc2)o1  0.0303
38. Cc1cc(Cl)c(S(=O)(=O)Nc2ccc3c(c2)OCCO3)cc1OCC(N)=O  0.0293
39. COc1ccc(/C=C/C(=O)OCC(=O)c2c(N)n(C)c(=O)n(C)c2=O)cc1  0.0243
40. Cc1cccc(C(=O)NCCC(=O)Nc2nc(C)c(Cc3ccc4c(c3)OCO4)s2)c1  0.0178
41. Cc1ccc(C)c(NC(=O)C2CCCN2/C=C/C(=O)C(F)(F)F)c1 (stereo not drawn)  -0.00109
42. COC(=O)c1cc(C)sc1NC(=O)C1CC=CCC1C(=O)O (stereo not drawn)  -0.00112
43. CC(=O)N1CCCc2cc(S(=O)(=O)CCC(=O)N3CCN(c4ccccc4)CC3)ccc21  -0.0012
44. COc1ccc(C(=O)Nn2cnnc2)cc1  -0.00169
45. Fc1ccc(-c2csc3ncnc(Nc4ccc(N5CCOCC5)cc4)c23)cc1  -0.0151
46. COc1ccc(C(c2c(C)[nH]n(-c3ccccc3)c2=O)c2c(C)[nH]n(-c3ccccc3)c2=O)cc1OC  -0.0184
47. CCOC(=O)Cn1nc(/C=C/c2ccc(C(C)C)cc2)ccc1=O  -0.0298
48. CCCCNC(=O)C1CC(c2cccc([N+](=O)[O-])c2)=NO1 (stereo not drawn)  -0.039
49. S=C(c1ccc(-c2ccc(Cl)cc2)o1)N1CCCCC1  -0.0402
50. O=C(CSc1nc2ccccc2o1)c1ccc2c(c1)OCCO2  -0.0602
51. COc1ccc(Cc2nc3c4c(ncn3n2)Oc2c(ccc3ccccc23)C4c2ccc(OC)c(OC)c2)cc1 (stereo not drawn)  -0.0955
52. CCCNC(=O)C(NS(=O)(=O)c1cccc2nsnc12)c1ccccc1 (stereo not drawn)  -0.0978
53. COc1ccc2c(c1)CC/C(=C\C=C\c1ccccc1OC)C2=O  -0.112
54. Fc1ccc(-c2nnc(-n3nnc4ccccc43)c3ccccc23)cc1  -0.122
55. CCc1ccc2c(CN3CCN(S(=O)(=O)c4cccs4)CC3)cc(=O)oc2c1  -0.124
56. Cc1ccc(NC(=O)CN2C(=O)N/C(=C/c3ccc(C)o3)C2=O)cc1  -0.131
57. COc1ccc(NC(=O)OCCn2c([N+](=O)[O-])cnc2C)cc1  -0.144
58. CCCCC(=O)OCc1nc(N)nc(Nc2ccccc2C)n1  -0.161
59. CS(=O)(=O)N(CC(=O)NCc1ccc2c(c1)OCO2)Cc1ccccc1  -0.163
60. CCOC(=O)C1CCN(Cc2cnc(Oc3ccc(Cl)cc3C)s2)CC1  -0.164
61. Cc1ccc(S(=O)(=O)C(C)C(=O)c2ccc3c(c2)OCCO3)cc1 (stereo not drawn)  -0.172
62. Cc1cc(C)cc(NC(=O)CCC(=O)Nc2cc(C)on2)c1  -0.172
63. CN1C(=O)C(CC(=O)Nc2ccc(F)cc2)N(CCCc2ccccc2)C1=S (stereo not drawn)  -0.177
64. COC(=O)c1ccccc1Sc1c(/C=N/OCc2ccc(Cl)cc2)c(C(F)(F)F)nn1C  -0.18
65. COc1ccc(OC)c2[nH]c(=O)c(CCNC(=O)C(C)C)cc12  -0.183
66. Cc1ccc(C(=O)CC2(O)C(=O)Nc3ccccc32)s1 (stereo not drawn)  -0.191
67. CCOc1ccc(N2C(=O)CC(N)C2=O)cc1 (stereo not drawn)  -0.194
68. CN(c1ccc(C(=O)NCc2ccccc2)cc1)S(C)(=O)=O  -0.195
69. Cc1cc(C)nc(N2CCC(C(=O)NCc3cccc(C(F)(F)F)c3)CC2)n1  -0.205
70. O=C(CSc1nc(C2CC2)nc2ccccc12)NCc1ccc2c(c1)OCO2  -0.21
71. COc1cc(C=O)ccc1OCc1c(C)noc1C  -0.212
72. Cc1cc(=O)[nH]c(SC(C(=O)O)c2ccccc2)n1 (stereo not drawn)  -0.212
73. CCCCS(=O)(=O)NC1=NCN(CC)CN1  -0.22
74. COc1ccc(CN=C(NS(=O)(=O)c2cccs2)SC)cc1  -0.23
75. O=C(O)CCC(=O)N1N=C(c2cccs2)CC1c1cn(-c2ccccc2)nc1-c1ccccc1 (stereo not drawn)  -0.238
76. COc1ccc(-n2nnnc2S(=O)(=O)CC(=O)N2CCCCC2)cc1  -0.239
77. CCOC(=O)c1sc2nc(N3CCOCC3)c3c(c2c1N)CCC3  -0.25
78. Nc1c(C(=O)NCCc2ccccc2)nnn1Cc1ccc(Cl)cc1  -0.25
79. OC(c1ccccc1)c1nccn1Cc1ccccc1 (stereo not drawn)  -0.254
80. Cc1ccc2cc3cc(C(=O)N(CC(=O)NC4CCCC4)c4cccc(C)c4C)sc3nc2c1  -0.276
81. O=C(N/N=C/c1ccc(OCC(=O)N2CCCCC2)cc1)c1ccccc1O  -0.287
82. Cc1occc1C(=O)Nc1cccc(C(=O)NCc2ccccc2)c1  -0.295
83. Cc1ccc(NC(=O)C(C)Sc2nc(=O)cc(N)n2-c2ccccc2)cc1 (stereo not drawn)  -0.303
84. COc1ccc(CCN2C(=O)CC(NNC(=O)c3ccc(F)cc3)C2=O)cc1OC (stereo not drawn)  -0.344
85. CCOc1ccc(-c2nc(CSc3nnc(N)s3)cs2)cc1OC  -0.352
86. CCc1ccc2nc(NC(=O)CCCc3cccs3)sc2c1  -0.383
87. COc1cc(C)c(S(=O)(=O)N2CCCC2)cc1C  -0.412
88. COc1ccc(OC)c(-n2c(-c3cnccn3)n[nH]c2=S)c1  -0.441
89. CCC(C(=O)c1ccc2ncccc2c1)c1ccccc1 (stereo not drawn)  -0.445
90. COc1cc(NC(=S)Nc2ccc(S(=O)(=O)N3CCOCC3)cc2)cc(OC)c1OC  -0.491
91. COc1ccc(-c2oc(NC(C)=O)c(C#N)c2-c2ccc(OC)cc2)cc1  -0.496
92. Nc1nc(CSCc2ccccc2)nc(N2CCOCC2)n1  -0.51
93. CC1Cc2nc(SCC(=O)Nc3ccc(F)cc3)n(C)c(=O)c2S1 (stereo not drawn)  -0.516
94. CC(=O)c1cccc(NC(=O)NCc2cccs2)c1  -0.576
95. CCNc1nc(NCc2ccccc2)nc(SCC(=O)Nc2ccccc2)n1  -0.745
96. COC(=O)c1c(NC(=O)c2ccc(Br)s2)sc2c1CCC2  -0.856
97. CN(C)S(=O)(=O)c1cccc(NC(=O)c2cc3ccccc3o2)c1  -0.921
98. COc1ccc2nc(NC(=O)C3CCCN3S(=O)(=O)c3ccc(C)cc3)sc2c1 (stereo not drawn)  -0.923
99. C=CCSc1nc(N)c(C(=O)Nc2ccccc2OC)cc1C(=O)Nc1ccccc1  -0.95
100. Cc1cccc(Oc2nc(-c3cccc([N+](=O)[O-])c3)nc3ccccc23)c1C  -0.967
101. O=C(Oc1cccc(NC(=O)c2ccco2)c1)c1cccc(S(=O)(=O)N2CCCC2)c1  -1.16
102. O=C(CCCN1C(=O)c2ccccc2C1=O)Nc1c(C(=O)C2CC2)oc2ccccc12  -1.22
103. CCOC(=O)N/N=C/c1cn(Cc2ccc(Cl)cc2)c2ccccc12  -1.29
104. CC(C)Cc1cc(C(=O)Nc2cc(Cl)ccc2Cl)no1  -1.6
105. Cn1c(SCC(=O)Nc2ccc3nc(SCC(=O)NC4CC4)sc3c2)nnc1-c1ccccc1  -2.37

O=C(CCS(=O)NCc1ccccc1)NCc1ccccc1 (stereo not drawn) was tested, and the z-score was active: -4.32.
CC1=C(C(=O)OCC2CCCO2)C(c2ccc(C)o2)C2=C(CC(c3ccc(F)cc3)CC2=O)N1 (stereo not drawn) was tested, and the z-score was active: -3.31.
With CCCN(CCC)CCCOC(=O)c1ccc(Cl)cc1Cl the z-score was active: 3.95.
